# Where “and” joins values, the source holds several entries; their conditions need not be identical. Identical values can stand only once.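 Assay format: 96-well plates, 48-hour exposure. At the GI50, growth is halved. TGI: total growth inhibition.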
# System: NCI-H322M lung
# Experiment: growth of human tumour cells (NCI), 48 h
SMILES,GI50 [µM],TGI
O=C1/C(=C/c2ccc(F)cc2)CCOc2ccc([N+](=O)[O-])cc21,21.7,41.1 µM
CCn1c(-c2nonc2N)nc2c(C#CCN)ncc(OCCCN)c21,> 25,> 25 µM
Clc1ccccc1C(c1ccccc1)(c1ccccc1)n1ccnc1,3.12,13.8 µM and 29.9 µM
CCCCCCCCCCCCC(=O)OC(c1cnco1)c1nc(C(O)CC(O)C(O)C(C)O)co1 (centres undefined),1.03,> 92.4 µM
O=C1CC2C=CC(O)C(C1)C2 (centres undefined),,> 100 µM
Cc1ccccc1C1OC1C(=O)c1ccccc1N (centres undefined),,> 100 µM
Cc1cc2c(c(C(=O)NCCC(=O)O)c1)Oc1c(cc(C)cc1C(=O)NCCC(=O)O)S2,,> 100 µM
CCN1CCN(c2nc(NCCCNc3ccnc4cc(Cl)ccc34)c3ccccc3n2)CC1,2.15,7.89 µM
CN(C)CC(=O)N1CCC(c2ccc(NC(=O)c3ncc(C#N)[nH]3)c(C3=CCCCC3)c2)CC1,11.7,24.2 µM
Cc1cc2c(cc1C)[n+](=O)c(C(=O)C/C(=N/NC(=O)c1ccccc1O)C(=O)Nc1ccccc1C(C)C)c(C)n2[O-],,> 100 µM
COc1cc2c(cc1OCCCCCOc1cc3c(cc1OC)C(=O)N1CCC[C@H]1C(=O)N3)N=C[C@@H]1CCCN1C2=O,,0.884 µM
Cc1cc(-c2nc3ccccc3s2)ccc1NS(=O)(=O)O,,> 100 µM
COc1cc(COC(=O)N[C@H](C(=O)O)C(C)(C)C)c([N+](=O)[O-])cc1OC,,> 100 µM
O=C(NNc1nc2c(F)cccc2n2cccc12)c1cnccn1,0.494,> 69.1 µM
COc1ccc(C2C(Cl)C(=O)N2NC(=O)c2ccc(NC(C)=O)cc2)cc1 (centres undefined),,> 100 µM
Cc1ccccc1C(C#N)C(=O)C(=O)Nc1nc([N+](=O)[O-])cs1 (centres undefined),,> 100 µM
C=CC1=CSNN1,,> 100 µM
COC(=O)c1cc(CC(C)C)c2c(c1)[nH]c1ccccc12,,> 100 µM
Cc1ccc(-c2cc(N)n(-c3nc4c([nH]3)c(=O)n(C)c(=O)n4C)n2)cc1,,22.4 µM
O=C(CSc1nc2ccc([N+](=O)[O-])cc2[nH]1)Nc1ccc(F)c(Cl)c1,2.66,11 µM
O=C1CC(c2ccco2)C2(C(=O)NC(=O)NC2=O)C(c2ccco2)C1 (centres undefined),,> 75 µM
COc1ccc(C(=S)N2CCN(c3cccc(Cl)c3)CC2)cc1,> 100,> 100 µM
COC(=O)C(C#N)=C1c2ccccc2Oc2ccccc21,,> 100 µM
CCCCCCCCCCCCCCCC(=O)NCC(COP(=O)([O-])OCC[N+](C)(C)C)OCC (centres undefined),,36.6 µM

SMILES,GI50 [µM],TGI
Cc1nn(-c2ccc(S(=O)(=O)[O-])cc2)c([O-])c1N=[N+](C)c1ccc(-c2ccc(N=Nc3ccc4c(S(=O)(=O)[O-])cc(S(=O)(=O)[O-])c(N)c4c3[O-])c([O-])c2)cc1[O-].[Cu+2].[Cu+2].[Na+],> 100,> 100 µM
O=c1[nH]c2nc3ccccc3c(=O)n2/c1=C/c1ccc(O)cc1,,> 100 µM
O=C(Nc1ccc(I)cc1C(=O)NCCO)c1cccs1,,> 100 µM
CC(C)(C)OC(=O)NCCCCC(NC(=O)OCc1ccccc1)C(N)=O (centres undefined),,> 100 µM
COc1ccc(N2C(=O)C3c4[nH]c5ccc([N+](=O)[O-])cc5c4C4CCC(C(C)(C)C)CC4C3C2=O)cc1 (centres undefined),,> 100 µM
C#Cc1cnc(=O)n(C2CC(O)C(CO)O2)c1 (centres undefined),> 100,> 100 µM
COc1ccc2nc(-c3ccc(OCc4ccccc4)cc3)ccc2c1,,> 100 µM
Fc1cccc(COc2ccc(Nc3ncncc3C#Cc3ccccc3)cc2Cl)c1,> 25,> 25 µM
C=CC(=O)Nc1cccc(-c2nc(SC)nc(Nc3ccccc3OC)c2C#N)c1,2.53,8.32 µM
O=c1oc2ccccc2c(O)c1C(c1cc(OCc2ccccc2)cc(OCc2ccccc2)c1)c1c(O)c2ccccc2oc1=O,,33.6 µM
CCOC(=O)C1=C(C)N(c2ccccc2)C2=C(C(=O)N(c3ccccc3)C2c2ccccc2)C1c1ccccc1 (centres undefined),,> 100 µM
CC(C)(C)C(=O)C(CC(=O)c1ccccc1)C(=O)C(C)(C)C,,> 100 µM
CC(=O)[CH-]C(=O)c1ccccc1.CC(=O)[CH-]C(=O)c1ccccc1.CCCCCCCCCCCCCCCCCC(=O)[O-].CCCCCCCCCCCCCCCCCC(=O)[O-].[Ti+4],39.3,> 100 µM
N#CCCN(c1ccc(C=Nc2cccc([N+](=O)[O-])c2)cc1)S(=O)(=O)c1ccccc1,,> 100 µM
C#CCNC(=O)NC(CCCNC(=O)OCc1ccccc1)C(=O)OCc1ccccc1 (centres undefined),,> 100 µM
CN1CCN(CC#Cc2cccc(C(=O)c3cnn(-c4ccc(F)cc4)c3N)c2)CC1,> 25,> 25 µM
CN1CCN(Cc2ccc(C(=O)Nc3cncc(C#Cc4cnc(N)c5ccccc45)c3)cc2C(F)(F)F)CC1,3.73,13.9 µM
O=C(C#Cc1c[nH]c(=O)[nH]c1=O)c1ccccc1Cl,,> 100 µM
CSC1=Nc2ccccc2N(C)c2c1c(-c1ccccc1)nn2C,,> 100 µM
COc1ccc(Nc2c(C#N)c3n(c4ccccc24)c2ccccc2[n+]3C)cc1OC,,12.2 µM
N#CC1=C(N)OC2=C(CSc3ccccc32)C1c1ccc(Br)cc1 (centres undefined),,36.9 µM
N#CC1(c2nc3ccccc3o2)C(=O)C(=O)N(C2C3CC4CC(C3)CC2C4)C(=O)C1=O (centres undefined),,> 100 µM
COc1ccc2c(c1)c1c(n2CCN2CCOCC2)-c2ccccc2CC1,,> 100 µM
CCOC(=O)c1c(NC(=O)c2ccccc2)sc2c1CCCC2,,> 100 µM
